71 compounds from PubChem BioAssay AID1362 (SRMLSC, 2008) can be followed below.

Structures are written as SMILES. The list shows a part of the results. Shown are side measurements of this screen, not its main read-out; they come without a call. The list favours compounds with an active or inconclusive main result.

The assay in a line: growth inhibition of WT strain, primary screen, mitochondrial fusion inhibitor project, WT and mutant strains, chemical genetic (AID 1362). Also: tested in S. cerevisiae. The settings on record: mitochondrial fusion phenotypic screen, at 10 µM.
In the case of `Cc1ccc(C(=O)N2c3ccccc3N(Cc3ccccc3)C(=O)C2(C)C)cc1`, the inhibition came out at 56.2%.
On to `CN(C)/C=C(/C#N)C(=O)c1cccc(Oc2ccc(C(C)(C)C)cc2)c1`, for which the inhibition amounted to 29.2%.
With `Cc1cc(C)n(CC(O)CN2c3ccccc3Sc3ccccc32)n1` (stereo unspecified), the inhibition was found to be 45.9%.
To `CCCCCCCOC(=O)c1nc(Cl)c(Cl)c(N)c1Cl` belongs 24.7%; to `CC1=NOC(=O)/C1=C\c1ccc(-c2ccccc2Br)o1`, 70.2%.
Under `Cc1ccc(NC(=S)Nc2cccc3cnccc23)cc1C` stands 50.2%; under `O=C(CCc1nc(-c2ccccc2)no1)NCCc1ccccc1`, -2.54%.
`CNC(=O)c1ccsc1NC(=O)c1ccc2c(c1)CCCC2`: the inhibition amounted to 57.8%.
To `CCCCc1ccc(NC(=S)N2CCCC(C)C2)cc1` (stereo unspecified) belongs 64%.
To `CCCc1ccc(-c2cc(C(=O)NC3=NCCS3)c3ccccc3n2)cc1` belongs 75.6%; to `COc1cc(-c2nnc(SCc3c(F)cccc3Cl)o2)cc(OC)c1OC`, 16.9%; to `C=CCSc1nnc(-c2cc3c(s2)-c2ccccc2CC3)o1`, 45%.
Under `O=C1c2cccc3cccc(c23)C(=O)N1CCCN1CCN(c2ccc(F)cc2)CC1` stands 40.9%; under `c1cncc(-c2nc(NCC3COc4ccccc4O3)c3ccccc3n2)c1` (stereo unspecified), 43.7%; under `CCCN1C(=O)/C(=C\C=C2/C=CN(CC)c3ccccc32)SC1=S`, 46.5%.
Consider `Cc1ccc(NS(=O)(=O)c2ccc(C3CCCCC3)cc2)cc1`, for which the inhibition stood at 31.6%.
To `CCCN(CCC)C(=O)CC(c1ccccc1)c1cc(Br)ccc1O` (stereo unspecified) belongs 22.2%; to `O=C1CSC(c2ccccc2Br)N1c1ccc(Cl)cn1` (stereo unspecified), 34.9%; to `O=C(Nc1ccc(Cl)c([N+](=O)[O-])c1)C(Sc1ccccc1)c1ccccc1` (stereo unspecified), 72.7%.
To `O=C(Nc1ccc(Cl)cc1)c1ccc2c(c1)OCO2` belongs 8.92%.
To `O=C1S/C(=C\c2ccc(O)c([N+](=O)[O-])c2)C(=O)N1c1ccccc1Cl` belongs 54.3%.
As for `Cc1ccc(CNc2nc(-c3cccs3)nc3ccccc23)cc1`, the inhibition was 35.8%.
Under `Cc1nc(N2N=C3/C(=C/c4ccc(F)cc4)CCCC3C2c2ccc(F)cc2)sc1C(=O)N(C)C` (stereo unspecified) stands 43.4%; under `O=C(CCc1ccccc1)NC(=S)Nc1cccc(Br)c1`, 0.62%.
Under `N/C(Cc1ccccc1)=N\OC(=O)c1cccc2ccccc12` stands 21.3%; under `NC(=S)N/N=C\c1c(OCc2ccccc2Cl)ccc2ccccc12`, 55.3%.
Under `Cc1cc(Cl)ccc1OC(C)C(=O)N1CCCN(C(=O)C(C)Oc2ccc(Cl)cc2C)CC1` (stereo unspecified) stands 25.3%.
Regarding `CC(CCc1ccco1)NC(=O)c1cccc2c1C(=O)N(C1CCCCC1)C2` (stereo unspecified), the inhibition turned out to be 38.8%.
To `O=C(Nc1ccccc1)OC1CC2CC1C1CCCC21` (stereo unspecified) belongs 38.8%; to `CCOc1cc(CNCCO)cc(Br)c1OCc1ccccc1Cl`, 96.7%; to `COc1ccc(C2CC(c3ccc(Br)cc3)=NN2C(=O)c2cccnc2)cc1` (stereo unspecified), -2.85%.
Under `COc1ccc2cc(/C=C3\SC(=S)NC3=O)c(N3CCOCC3)nc2c1` stands 24.2%; under `COc1ccc(NC(=S)N(CCc2c(C)[nH]c3ccc(C)cc23)Cc2ccco2)cc1`, 9%.
Under `COc1cccc(N2CCN(CC(=O)Nc3ccc(SC(F)F)cc3)CC2)c1` stands 20.1%; under `N#Cc1c(N)nc2c(c1-c1ccc3c(c1)OCO3)CCc1ccccc1-2`, 34.4%; under `COc1cc(CNn2cn[nH]c2=S)cc(Cl)c1OCc1ccc(F)cc1`, 8.54%.
In the case of `S=C(NCc1cccc(Cl)c1)NC1CCCCC1`, the inhibition was 49.5%.
On to `FC(F)Sc1ccc(NC(=S)NCc2ccccc2)cc1`, for which the inhibition is 31.7%.
To `COc1ccc(CNC(=S)NC(C)CCc2ccccc2)cc1` (stereo unspecified) belongs 66.2%; to `CC(C)c1ccc(-c2cc(C(=O)N3N=C(C(F)F)CC3(O)C(F)F)c3ccccc3n2)cc1` (stereo unspecified), 77.7%.
As for `CCc1c(C)nc(SCC(=O)c2cccs2)c(C#N)c1C`, the inhibition amounted to 62.8%.
Under `O=C(C[n+]1cn(C(F)F)c2ccccc21)c1ccc(OC(F)F)cc1` stands 65.2%; under `CNC(=S)/N=C/NOCc1ccc(Cl)cc1Cl`, 57.7%.
To `COCCN(C(=S)Nc1c(C)cc(C)cc1C)C(C)c1cccs1` (stereo unspecified) belongs -6.11%; to `COC(=O)c1ccc2c(c1O)C(=O)c1ccccc1C2=O`, 50.9%; to `CC(C)Nc1nc(Oc2cccc(Cl)c2Cl)cc(C(F)(F)F)n1`, 16.8%.
Under `O=C(Nc1ccc(Cl)cc1)c1csc(Cc2ccccc2)n1` stands 26.1%; under `COC(=O)c1c(NC(=O)CN2CCC3(O)CCCCC3C2c2cc(OC)ccc2OC)sc(C)c1C` (stereo unspecified), 7.03%; under `CN(c1ccccc1)S(=O)(=O)c1ccc(NC(=S)NC(=O)C2CC2)cc1`, 53.1%.
`Cn1c(=O)n(CCc2ccccc2)c(=O)c2c1nc1n2CCCN1CCc1ccccc1`: the inhibition was 17.2%.
To `C=C(C)CNC(=S)NN=C1c2ccccc2-c2ccccc21` belongs 67.3%; to `O=C(Nc1cc(Cl)ccc1Oc1ccccc1)c1ccc(F)cc1`, -6.87%.
Under `COc1ccc(N/C=C/C(=O)c2ccc(Oc3ncccn3)cc2)cc1` stands -11.5%.
Under `CC(c1cccs1)N(Cc1ccco1)C(=S)Nc1ccc(F)c(Cl)c1` (stereo unspecified) stands 49.7%.
Take `CCN1CCN(c2cc(C(C)(C)C)nc3c(-c4ccccc4)c(C)nn23)CC1`: the inhibition turned out to be 87.3%.
As for `Cc1ccc(OCc2n[nH]c(=S)n2-c2ccccc2)cc1C`, the inhibition was 9.45%.
To `CCOC(=O)CSc1n[nH]c(-c2cccnc2)n1` belongs -4.35%; to `FC(F)(F)c1cnc(Sc2nc3nccc(-c4ccc(Cl)cc4)n3n2)c(Cl)c1`, 11.7%; to `CCCC[C@@H]1CNC(=S)N1CCc1cccc(F)c1`, 55.1%.
Under `COc1ccc(OCCC(=O)N2CCCCC2)cc1` stands 7.1%; under `c1ccc(CC2CCN(c3nnnn3-c3ccccc3)CC2)cc1`, 5.33%; under `CC(C)C(NC(=O)C12CC3CC(CC(C3)C1)C2)C(=O)NC1=NCCS1` (stereo unspecified), 14.3%.
Take `CCOc1ccccc1N1CCN(C(=O)Nc2ccc(Cl)c(Cl)c2)CC1`: the inhibition was determined as 1.93%.
To `Cc1ccc(C(=O)N(CCCN(C)C)c2nc3ccc(Cl)cc3s2)cc1C` belongs 89.4%; to `CC#C[C@]1(O)CC[C@H]2[C@@H]3CCC4=CC(=O)CCC4=C3[C@@H](c3ccc(N(C)C)cc3)C[C@@]21C`, 9.53%.
To `Cc1ccc(C(=O)Nc2ccc(S(=O)(=O)NCc3ccco3)cc2)cc1` belongs 36.8%; to `Cc1ccc2c(C(=O)N3CCN(c4ccccc4)CC3)cc(-c3cccnc3)nc2c1C`, 37.5%; to `Cn1c(=O)[nH]c(=O)c2c1nc(Br)n2CCSc1ncccn1`, 6.35%.
On to `CCc1ccc(OC)c(-c2csc(N)n2)c1`, for which the inhibition amounted to 57.1%.
To `c1ccc(-c2nnc(-c3ccccn3)nc2NC2CCCCC2)cc1` belongs 61.5%.
In the case of `O=C(Nc1nc(-c2cc(Cl)sc2Cl)cs1)c1cccs1`, the inhibition stood at 56.4%.
